The whole screen tested about 350,000 compounds, of which about 9,900 (2.8%) were called active. This list was built around the results that the source calls inconclusive (neither active nor inactive); the mix of calls is not that of the screen. The call rests on the fitted dose curve; in most records, active means well fitted activation curve with a large enough effect; inconclusive means small, poorly fitted or top-dose-only effect; inactive means no such curve, though single readings can be large or run the other way. Potencies of inconclusive entries are left out as doubtful fits.
test: A quantitative high throughput screen for small molecules that induce DNA re-replication in MCF 10a normal breast cells.; further: nearly all actives have a fitted effect of over 50% in size; details: MCF 10A DNA re-replication, Hoechst nuclear intensity, 48 h; series mostly up to 46.1 µM
Potency means the concentration at half of the fitted maximal effect; tags describe the fitted curve by direction and shape.

| Structure (SMILES) | Potency |
| --- | --- |
| COC(=O)/C=c1/s/c(=C(\C#N)C(=O)NCc2ccco2)n(-c2ccccc2)c1=O | inconclusive [activator, single point] |
| COc1cc([N+](=O)[O-])cc2sc(NC(=O)c3c(F)cccc3F)nc12 | active: 0.731 µM |
| Cc1sc(NC(=O)c2sc3nc4c(C)cccc4cc3c2N)c(C#N)c1C | inconclusive [activator, partial curve] |
| CC[C@H](C)/C=C/C1=CC2=C(Cl)C(=O)[C@@]3(C)OC(=O)C(C(=O)[C@H](C)[C@@H](C)O)=C3C2=CO1 | inconclusive [activator, single point] |
| O=S(=O)(c1ccccc1)N1CCN=C1SCc1ccc(Cl)c(Cl)c1 | inconclusive [activator, partial curve, poor fit] |
| CCc1noc(C)c1C(=O)OCC(=O)NCc1ccc(Cl)cc1 | inconclusive [activator, partial curve, poor fit] |
| COc1cccc(N2CCN(CC(=O)NCc3ccccc3)CC2)c1 | inactive |
| C[C@@H](C(=O)NCc1ccccc1)[C@@H]1C[C@@]1(C)[C@@H](NC(=O)OCc1ccccc1)c1ccccc1 | inactive |
| CCOc1ccc2[nH]c(C)c(CN(C)C)c(=O)c2c1 | inconclusive [activator, single point] |
| O=C(NCCSc1ccc(Cl)cc1)c1ccc(CN2CCOCC2)cc1 | inconclusive [activator, full curve, poor fit] |
| Cc1ccc(S(=O)(=O)n2ccc3c(OCCOCCSCC(NC(=O)OC(C)(C)C)C(=O)O)cccc32)cc1 (stereo not given) | inconclusive [activator, single point] |
| COc1ccc(OC)c(Nc2nc(-c3ccncc3)nc3ccccc23)c1 | inconclusive [activator, partial curve] |
| N#Cc1ccc(/C=C\c2nccc3c2[nH]c2ccccc23)cc1 | inconclusive [activator, full curve, poor fit] |
| Cc1ccc2nsnc2c1NC(=O)c1ccc([N+](=O)[O-])cc1 | inactive |
| Cn1c(=O)c2c(n(Cc3ccccc3)c1=O)NC(=O)C2CC(=O)N1CCc2ccccc2C1 (stereo not given) | inconclusive [activator, single point] |
| O=C1/C(=C\c2ccccn2)SC(=S)N1c1ccc(S(=O)(=O)Nc2nccs2)cc1 | inconclusive [activator, full curve, poor fit] |
| COC(=O)c1nn(-c2ccc(OC)cc2)c(=O)c2c(N)sc(C)c12 | inactive |
| COc1ccccc1N1CCN(C(=O)c2cc3n(n2)C(C(F)(F)F)CC(c2ccco2)N3)CC1 (stereo not given) | inactive |
| COc1cc(NC(=O)c2cc([N+](=O)[O-])ccc2NC(=O)CNC2CCCCC2)cc(OC)c1 | inactive |
| O=C(COC(=O)COc1ccc(Br)cc1)NCCC1=CCCCC1 | inconclusive [activator, single point] |
| C[C@@H]1ON(C)[C@H]2C[C@H]3c4cc(N5CCOCC5)ccc4CCN3C(=O)[C@@H]12 | inactive |
| COc1ccc(CNCCC2(Cc3ccccc3)CC(C)N(C)CC2C)cc1OC (stereo not given) | inconclusive [activator, single point] |

| Structure (SMILES) | Potency |
| --- | --- |
| O=C(NCCc1c[nH]c2ccccc12)C(=O)NCC1OCCCN1S(=O)(=O)c1cc(F)ccc1F (stereo not given) | inactive |
| Cc1ccc(NC(=O)Cn2nc(-c3ccccc3)nc2-c2ccccc2)c(C)c1 | inconclusive [activator, single point] |
| Fc1ccccc1-c1csc(=Nc2cccnc2)n1CCCn1ccnc1 | inactive |
| O=C(Cn1nnc(-c2ccccc2)n1)Nc1ccc2c(c1)OCO2 | inactive |
| COC(=O)c1cc(C)sc1NC(=O)CCc1ccccc1 | inconclusive [activator, single point] |
| Cc1c(C(=O)NC2CCOC2)oc2c(F)cccc12 (stereo not given) | inactive |
| CNc1ccccc1C(C)(C)c1cc(-c2cccc([N+](=O)[O-])c2)no1 | inconclusive [activator, single point] |
| Cc1ccc2nc(NC(=O)CN3CCN(c4ccccn4)CC3)sc2c1 | inconclusive [activator, partial curve, poor fit] |
| N#C/C(=C\c1ccc(N2CCCCC2)o1)C(=O)Nc1cccc(Br)c1 | inconclusive [activator, single point] |
| CC(C)c1nc2cc(C(=O)N3CCN(c4cnccn4)CC3)ccc2o1 | inconclusive [activator, partial curve, poor fit] |
| Cc1[nH]c2ccccc2c(=O)c1CN1CCCCCC1 | inactive |
| CN1CCN(c2c(/C=N/O)c3ccccc3n2C)CC1 | inconclusive [activator, partial curve, poor fit] |
| O=C(c1noc2c1CCCCC2)N1CCOCC1 | inconclusive [activator, single point] |
| O=C1CCCc2nc(N3CCN(C(c4ccccc4)c4ccccc4)CC3)ncc21 | inconclusive [activator, partial curve, poor fit] |
| NC(=S)N/N=C1\CCOc2ccc(F)cc21 | inconclusive [activator, single point] |
| O=C(CNC(=O)c1ccccc1F)N/N=C/c1cccnc1 | inactive |
| CCN1CCN(C(=O)CN(c2cc(OC)ccc2OC)S(C)(=O)=O)CC1 | inactive |
| O=C(Nc1nc2c(ccc3ccccc32)s1)c1ccco1 | inconclusive [activator, single point] |
| O=C(NC1CCCCC1)N(CCN1CCOCC1)Cc1cc2cc3c(cc2[nH]c1=O)OCCO3 | inactive |
| Clc1ccc(-c2nnc(Sc3nc4ccccc4o3)c3ccccc23)cc1 | inconclusive [activator, single point] |
| C=CCN(CC=C)C(=O)C1CCN(S(=O)(=O)c2ccc(N3CCCC3=O)cc2)CC1 | inconclusive [activator, partial curve, poor fit] |
| CCCCNC(=O)c1ccccc1C(=O)NCCCC | inconclusive [activator, single point] |

| Structure (SMILES) | Potency |
| --- | --- |
| Cc1cc(C)c2c(=O)n(CC(=O)NCCCN3CCOCC3)sc2n1 | inconclusive [activator, single point] |
| Cc1ccc2nc(/C(C#N)=C/c3ccccc3C(=O)O)[nH]c2c1 | inconclusive [activator, full curve] |
| COc1ccc(C(CC(=O)N2CCCC(C)C2)c2c(OC)cc(OC)c3c(-c4ccccc4)cc(=O)oc23)cc1 (stereo not given) | inconclusive [activator, single point] |
| CCOC(=O)c1c(C2COc3ccccc3O2)csc1N (stereo not given) | inconclusive [activator, partial curve, poor fit] |
| CC(Oc1cccc(Br)c1)C(=O)Nc1cccc(S(=O)(=O)N2CCOCC2)c1 (stereo not given) | inconclusive [activator, single point] |
| COc1ccc(-c2ccc(SCC(=O)NC3CCCC3)nn2)cc1OC | inconclusive [activator, full curve, poor fit] |
| NC(=NCc1ccccc1)NC(=O)c1nc(Cl)c(N)nc1N | inconclusive [activator, single point] |
| CO/N=C(/CS(=O)Cc1ccc(Cl)cc1)c1ccc(Cl)cc1 (stereo not given) | inconclusive [activator, single point] |
| CCOC(=O)/C=C1\SCC(=O)N1CC(=O)NC(C)c1ccccc1 (stereo not given) | inconclusive [activator, single point] |
| Cn1c(=O)[nH]c(=O)c2c1nc(N1CCCCCC1)n2CCCSc1nc2ccccc2o1 | inactive |
| CCCCn1c(N)c(N(CC(C)C)C(=O)CN2C(=O)NC3(CCC(C(C)(C)CC)CC3)C2=O)c(=O)[nH]c1=O (stereo not given) | inactive |
| CCOC(=O)c1cn(-c2c(Cl)cccc2Cl)c2cc(Cl)c([N+](=O)[O-])cc2c1=O | inconclusive [activator, single point] |
| COC(=O)c1c(-c2ccc(OC)cc2)oc2ccc(-c3cc(OC)c(OC)c(OC)c3)cc12 | inconclusive [activator, partial curve, poor fit] |
| COc1ccc(C(=O)Nc2nnc(Cc3cccs3)s2)cc1OC | inconclusive [activator, full curve] |
| O=C(COC(=O)CCC(NC(=O)OCc1ccccc1)C(=O)OCC(=O)Nc1ccccc1)Nc1ccccc1 (stereo not given) | inconclusive [activator, single point] |
| Cc1csc(=O)n1CC(=O)OC(C)C(=O)Nc1ccc(F)c(F)c1F (stereo not given) | inconclusive [activator, single point] |
| C=CCn1c(SCC(=O)/C(C#N)=C(\C)N)nc2sc(C)c(C)c2c1=O | inconclusive [activator, full curve, poor fit] |
| CC1(CC(=O)N/N=C/c2ccc(-c3ccc(C(=O)O)cc3)o2)OCCO1 | inconclusive [activator, full curve, poor fit] |
| CCc1nnc(NC(=O)c2cccc(C(=O)Nc3nnc(CC)s3)n2)s1 | inconclusive [activator, full curve, poor fit] |
| Cc1ccc(-c2ccc(/C=N/N3C(=O)C4C5C=CC(CC5)C4C3=O)o2)c([N+](=O)[O-])c1 (stereo not given) | inconclusive [activator, single point] |
| Cc1cc(NC(=O)CS(=O)(=O)c2ccc(Cl)cc2)no1 | inactive |

Source: PubChem BioAssay AID624296 (National Center for Advancing Translational Sciences (NCATS), 2012)
